Reference: PubChem BioAssay AID1345082 (National Center for Advancing Translational Sciences (NCATS), 2018)
Screen size: about 94,000 compounds; about 4,000 (4.3%) were called active. Inconclusive results, whose numbers are uncertain, are shown with a selection of clear calls. The call rests on the fitted dose curve; in most records, active means well fitted inhibition curve with a large enough effect; inconclusive means small, poorly fitted or top-dose-only effect; inactive means no such curve, though single readings can be large or run the other way. Potencies of inconclusive entries are doubtful fits and often do not repeat.

Assay: Cytotoxic Profiling in NIH 3T3 Cell Line of Diverse Libraries Using Quantitative High-Throughput Screening; further: nearly all actives have a fitted effect of over 55% in size
Settings: NIH 3T3 viability, CellTiter-Glo ATP luminescence, 48-72 h; series mostly up to 96.7 µM
Procedure, shortened: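 Luminescent ATP readout (CellTiter-Glo, 10 min RT) after 48 or 72 hr compound exposure of NIH 3T3 cells seeded at 400 cells/well in 1536-well format; quantitative HTS.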
Potency means the concentration at half of the fitted maximal effect; tags describe the fitted curve by direction and shape.

| SMILES | Potency |
| --- | --- |
| CCOCCOC1CCN(C(=O)Nc2ccc(OC)cc2)CC1 | inactive |
| COc1cccc(CC(=O)Nc2ccc3c(N4CCCCC4)ncnc3c2)c1 | inconclusive: 44.7 µM [inhibitor, partial curve, poor fit] |
| CC(C)S(=O)(=O)N(C)Cc1cccc(N2CCN(C(=O)c3c(Cl)cccc3Cl)CC2)c1F | inconclusive: 50.1 µM [inhibitor, partial curve, poor fit] |
| COc1nc2c(cc1CNC(=O)C1CC(=O)N(C)C1)C(=O)N(C1CCCC1)C2 (stereo not drawn) | inactive |
| COC(=O)C1=C(C)N=C2SC=C(CC(=O)NC3CC4CCC3C4)N2C1c1ccsc1 (stereo not drawn) | inconclusive: 39.8 µM [inhibitor, partial curve, poor fit] |
| CCOCCNC(=O)c1ccc(-c2ccc(OC)nn2)cc1 | inconclusive: 89.1 µM [inhibitor, partial curve] |
| COCCCNC(=O)C1CCN(C(=O)c2ccc(-c3ccccc3OC)cc2)CC1 | inactive |
| Cn1ncc2c(C(=O)NCCN3CCOCC3)cc(C(C)(C)C)nc21 | inactive |
| O=C(c1ccco1)N1CCCn2cc(-c3ccc4c(c3)OCO4)nc21 | inactive |
| NCc1ccc(-c2cccs2)cc1 | inconclusive: 89.1 µM [inhibitor, partial curve, poor fit] |
| COc1ccc2c(c1)c(CN1CCOCCNC(=O)CC1)cn2C | inconclusive: 39.8 µM [inhibitor, partial curve] |
| COc1ccc(CCNC(=O)c2ccc(Cn3ccn4nc5c(c4c3=O)CCCC5)cc2)cc1OC | inconclusive: 56.2 µM [inhibitor, partial curve, poor fit] |
| COCC(=O)NC1CCN(C(=O)c2ccc(-c3cncnc3)cc2)CC1 | inactive |
| CCc1ncc2c(=O)n(Cc3ccc(OC)cc3)ccn12 | inactive |
| O=C(Nc1ccccc1)c1ccc(Cn2ccn3nc4c(c3c2=O)CCCC4)cc1 | inconclusive: 35.5 µM [inhibitor, single point] |
| COc1ccc(-n2nc(C3CCN(Cc4ccncc4)CC3)[nH]c2=O)cc1 | inconclusive: 70.8 µM [inhibitor, single point] |
| Cc1ccc(S(=O)(=O)N2CCC(CCC(=O)NCc3cccc(C)c3)CC2)cc1 | inconclusive: 50.1 µM [inhibitor, single point] |
| CC(=O)N1CCN(c2ccnc(-c3nnc(C)n3C3CCCCC3)c2)CC1 | inconclusive: 89.1 µM [inhibitor, partial curve, poor fit] |
| O=C(NCCCc1ccccc1)C1CCCN(c2nccc(Nc3ccccc3F)n2)C1 (stereo not drawn) | active: 31.6 µM |
| C[C@H](C(=O)N1Cc2ccccc2CC2(CCN(C)C2)C1)c1ccccc1 (stereo partly drawn) | inconclusive: 56.2 µM [inhibitor, partial curve, poor fit] |
| CC[C@H]1CN(C(=O)Nc2cccc(C(F)(F)F)c2)CC[C@H]1CC(=O)N(C)CCC#N | inconclusive: 56.2 µM [inhibitor, partial curve, poor fit] |

| SMILES | Potency |
| --- | --- |
| CN1C(=O)c2cccn2CC1C(=O)N1CCCCC1 (stereo not drawn) | inactive |
| COc1cccc(-c2cccc(CN3CCCC3C(=O)NC(C)C)c2)c1 (stereo not drawn) | inconclusive: 89.1 µM [inhibitor, partial curve, poor fit] |
| CC(C)N1C[C@H](O)C[C@H]1c1nnc2n1CCN(C(=O)c1nccc3ccccc13)CC2 | inactive |
| CN1CCCN(C(=O)COc2ccc(Cl)cc2)c2ccccc21 | inconclusive: 2.82 µM [inhibitor, full curve, poor fit] |
| COc1ccc(F)cc1-c1ccc(CN2CCCCC2C(=O)NCc2ccc(Cl)cc2)cc1 (stereo not drawn) | inconclusive: 44.7 µM [inhibitor, partial curve, poor fit] |
| COCCNc1ccc2nnc(-c3cc(C#N)ccn3)n2n1 | inconclusive: 89.1 µM [inhibitor, partial curve, poor fit] |
| COc1ccc(-c2cnc3[nH]cc(CC(=O)Nc4cccc(F)c4)c3c2)cc1 | inconclusive: 39.8 µM [inhibitor, partial curve, poor fit] |
| CC(C)CN1C(=O)CO[C@H](c2ccc(NC(=O)COc3ccccc3)cc2)[C@H]1CO | inconclusive: 100 µM [inhibitor, partial curve, poor fit] |
| COCC(=O)NC1CCCN(c2ccc3nnc(C)n3n2)C1 (stereo not drawn) | inactive |
| COc1ccc(OC)c(NC(=O)c2c(OC)cc(=O)n3c2CCCC3)c1 | inconclusive: 39.8 µM [inhibitor, partial curve, poor fit] |
| O=C(c1ccccc1Cl)N1CCc2nc(C3CC3)nc(-c3ccc(Cl)cc3)c2C1 | inconclusive: 50.1 µM [inhibitor, partial curve, poor fit] |
| CC(=O)N(C1CC1)C1CCOC2(CCN(C(=O)Nc3ccccc3)CC2)C1 (stereo not drawn) | inactive |
| O=C(Nc1ccccc1)N[C@H]1CO[C@H]2[C@@H]1OC[C@H]2OC(=O)Nc1ccc(Oc2ccccc2)cc1 | inconclusive: 20 µM [inhibitor, full curve, poor fit] |
| Cc1noc(-c2cn(C3CCN(C(=O)Cc4ccc(F)cc4)CC3)nn2)n1 | inactive |
| NCCCCC(=O)N1CCOc2c(O)cc(-c3csc4ccccc34)cc2C1 | active: 39.8 µM |
| O=C(COc1ccccc1)NCC12CCC=C1N(CC1CC1)C(=O)CC2 (stereo not drawn) | inconclusive: 56.2 µM [inhibitor, partial curve, poor fit] |
| O=C(c1n[nH]c2ccccc12)N1CCC(c2nc(C3CCOCC3)no2)CC1 | inconclusive: 50.1 µM [inhibitor, partial curve, poor fit] |
| CCc1cc(CN(C)C(=O)c2oc3cc(OC)ccc3c2C)on1 | inconclusive: 50.1 µM [inhibitor, partial curve, poor fit] |
| Cc1ccc(C2Cn3nnc(C(=O)N4CCC(C(=O)NC5CCC(C)CC5)CC4)c3CO2)cc1 (stereo not drawn) | inactive |
| O=C(NCc1ccc(F)cc1)[C@@H]1C[C@@H](c2cccc(C(F)(F)F)c2)N(CC2CCOCC2)C1 | inconclusive: 25.1 µM [inhibitor, full curve, poor fit] |
| c1ccc(Nc2cc3c(cn2)CN(Cc2cnc[nH]2)CCN3)cc1 | inconclusive: 31.6 µM [inhibitor, full curve] |

| SMILES | Potency |
| --- | --- |
| COc1cc(-c2onc(C)c2C(=O)NC2Cc3ccccc3C2)cc(OC)c1OC | inconclusive: 44.7 µM [inhibitor, partial curve, poor fit] |
| FC(F)(F)c1ccc(CN2CC(Oc3ccc4c(c3)OCO4)C2)cc1 | inconclusive: 70.8 µM [inhibitor, single point] |
| CCC(c1cccs1)N1C(=O)[C@H]2CN(S(=O)(=O)c3ccccc3F)C[C@H]2C1=O (stereo partly drawn) | inactive |
| CC1(C(=O)NCCCn2ccnc2)CCc2cnc(NCc3ccccc3)nc21 (stereo not drawn) | active: 31.6 µM |
| CCOC(=O)c1ccc(CNC(=O)N2CCC[C@H](n3c(=O)n(C)c4cccnc43)C2)cc1 | inconclusive: 50.1 µM [inhibitor, partial curve, poor fit] |
| COc1ccc2c(c1)OCC(CNC(=O)c1cnn3ccccc13)C2 (stereo not drawn) | inconclusive: 79.4 µM [inhibitor, partial curve, poor fit] |
| O=C(c1ccc(F)cc1)N1CCC2(CC1)CC(=O)N(c1ccccc1)c1ccccc1O2 | inconclusive: 50.1 µM [inhibitor, partial curve, poor fit] |
| COc1ccc(-c2nc(C3CC3)nc3c2CN([S+](=O)([O-])c2cccs2)CC3)cc1 | inconclusive: 10 µM [inhibitor, partial curve, poor fit] |
| O=C(Cc1ccc(F)cc1)N1CCC2(CC1)N=C(c1ccc(Cl)cc1)NO2 | inconclusive: 35.5 µM [inhibitor, partial curve, poor fit] |
| CC(CO)Nc1ncnc2c1CN(C1CCCNCC1)C(=O)CN2C (stereo not drawn) | inactive |
| COCC1CN(C)CC12CCN(C(=O)CN1CCCCCC1)CC2 (stereo not drawn) | inactive |
| COCc1nc2nc(-c3ccccc3)c(-c3ccc(O)c(F)c3)cc2n1C | inconclusive: 50.1 µM [inhibitor, full curve] |
| Cn1ncc2c(C(=O)NCc3cccs3)cc(-c3ccsc3)nc21 | inconclusive: 44.7 µM [inhibitor, partial curve, poor fit] |
| COc1cccc(CNC(=O)C2(c3ccc(NS(C)(=O)=O)cc3)CCCCC2)c1 | inconclusive: 50.1 µM [inhibitor, partial curve, poor fit] |
| O=C(c1ccc(-c2cccs2)cc1)N1CCC(C(=O)N2CCCCC2)CC1 | inconclusive: 56.2 µM [inhibitor, partial curve, poor fit] |
| OC1(CN2CCCCC2)CCN(Cc2cnn(-c3ccccc3Cl)c2)C1 (stereo not drawn) | inconclusive: 50.1 µM [inhibitor, partial curve, poor fit] |
| O=C(Cc1c[nH]c2ncc(-c3ccccc3)cc12)N1CCCC1 | inconclusive: 50.1 µM [inhibitor, partial curve, poor fit] |
| Cc1ccc(C(C(=O)O)N2CCC(C(=O)N3CCCC3)CC2)c(C)c1 (stereo not drawn) | inactive |
| O=C(Nc1ccccc1)N1Cc2[nH]cnc2C[C@H]1c1nc(-c2ccccc2)no1 | inconclusive: 100 µM [inhibitor, partial curve] |
| CC(C)c1nc(-c2ccc(OC3CCN(C(=O)Cc4c[nH]c5ccccc45)C3)cc2)no1 (stereo not drawn) | inconclusive: 50.1 µM [inhibitor, partial curve, poor fit] |
| O=C(Cc1cccc(Cl)c1)N1CCc2nc(C3CC3)nc(-c3ccc(Cl)cc3)c2C1 | inconclusive: 50.1 µM [inhibitor, partial curve, poor fit] |
